Drawing on the RNAGym collection of RNA variant scans (doi:10.1093/nar/gkz1192), this text covers self-cleavage for 34 variants.

The source gives no read counts; variants with many changes may rest on few reads.

B1: CPEB3 Ribozyme (parent)
chain: UAACAGGGGGCCACAGCAGAAGCGUUCACGUCGCAGCCCCUGUCAGAUUCUGGUGAAUCUGCGAAUUCUGCUGUAUAUCUC

This series covers variants of B1. The series is described as follows: self-cleavage, relative activity (ratio to wild type); higher = more cleavage; in vitro, sequencing. The gist of the method: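 Libraries of CPEB3 self-cleaving ribozyme mutants came from rounds of error-prone PCR and carried barcodes, which DNA sequencing matched to variants. In vitro transcription used T7 RNA polymerase at 37°C for 5 hours, with a further 15 min in DNase I before EDTA stopped the reaction; the ribozymes cleaved during both steps. The RNA was reverse transcribed with template switching and sequenced on Illumina. Relative activity is the cleaved/total read fraction of a variant divided by that of the unmutated ribozyme, averaged over three batches with at least 5 reads.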
As to UAACAGGGGGCCACAGCAGGAGCGUUCACGUCGCAGCCCCUGUCAGAUCCUGGUGAAUCAGCGAAUUUUGCUGUAUAUCUC, the self-cleavage is 0.08. The same measure for UAACAGGGGGCCACAGCAGGAGCGUUCACGUCGCAGCCCCUGACAGAUUCUGGUGAAUCCGCGAAUUCUGCUGUAUAUCUC: 0.24. To UAACAGGGGGCCACAGCAGGAGCGUUCACGUCGCAGCCCCUGACAGAUUCUGGUGAAUCGGCGAAUUCUGCUGUAUAUCUC belongs 0.41; to UAACAGGGGGCCACAGCAGGAGCGUUCACGUCGCAGCCCCUGCCAGAUUCAGGUGAAUCUGCCGAUUCUGCUGUAUAUCUC, 0.19; to UAACAGGGGGCCACAGCAGGAGCGUUCACGUCGCAGCCCCUGUCAGAUCCUGGAGUAUCUGCGUAUUCUGCCGUAUAUCUC, 0.11. Regarding UAACAGGGGGCCACAGCAGGAGCGUUCACGUCGCAGCCCCUGUCAGAUCCUGGUGAACCUGCGAAUUCUGCUGUAUGUCUC, the self-cleavage is 0.14. For UAACAGGGGGCCACAGCAGGAGCGUUCACGUCGCAGCCCCUGUCAGAUUCCGGUGAAUCUGCGAAUUCAGCUGUAUAUCUC, the self-cleavage turned out to be 0.36. To UAACAGGGGGCCACAGCAGGAGCGUUCACGUCGCAGCCCCCGUCAGGUUCUGGUGGAUCUGCGGAUUCUGCUGUAUAUCUC belongs 0.26; to UAACAGGGGGCCACAGCAGGAGCGUUCACGUCGCAGCCCCUGUCAGAAUCUGGCGAAUCUGCGAUUUCUGCUGUAUAUCUC, 0.18. To UAACAGGGGGCCACAGCAGGAGCGUUCACGUCGCAGCCCCUGUCAGAUUCCGGUGGAUCUGCGAAUUCUGCUGUAUAUCUC belongs 0.66. The same measure for UAACAGGGGGCCACAGCAGGAGCGUUCACGUCGCAGCCCCUGCCAGAUUCUGGUGAAUCUGCGAAUACUGCUGUAUAUCUC: 0.27. Take UAACAGGGGGCCACAGCAGGAGCGUUCACGUCGCAGCCCCCGUCAGAUUCUGGUGAACCUGCGAAUUCUGCUGUAAAUCUC: the self-cleavage came out at 0.76. The same measure for UAACAGGGGGCCACAGCAGGAGCGUUCACGUCGCAGCCCCUGACAGAUUCUGGCGGAUCUGCGAAUUCUGCUGUAUUUCUC: 0.81; for UAACAGGGGGCCACAGCAGGAGCGUUCACGUCGCAGCCCCUGUCAGAUCCUGGUGAAUCUGCGAAUUCUGCCGUAUAUCUC: 0.27. To UAACAGGGGGCCACAGCAGGAGCGUUCACGUCGCAGCCCCCGUCAGAUUCUGGUGAGUCUGCGAAUUCUGCUGUAUAUCUC belongs 0.8; to UAACAGGGGGCCACAGCAGGAGCGUUCACGUCGCAGCCCCUGACAGAUUCUGGUGAAUCUGCGGAUUCUGCUGCAUAACUC, 1.22; to UAACAGGGGGCCACAGCAGGAGCGUUCACGUCGCAGCCCCCGUCAGAUUAUGGUGAAUCUGCGAAUUUUGCUGUAUAUCUC, 0.52. To UAACAGGGGGCCACAGCAGGAGCGUUCACGUCGCAGCCCCUGCCAGAUUCUGGUGAAUCUGCGAAUUCUGCUGUAUAAAUC belongs 0.5; to UAACAGGGGGCCACAGCAGGAGCGUUCACGUCGCAGCCCCUGUCAGACUCUGGUGAAUCUGCGAAUUCUGCUGCAUAUCUC, 0.81; to UAACAGGGGGCCACAGCAGGAGCGUUCACGUCGCAGCCCCUGCCAGAUUCUGGUGAAUCUGCGAAUUCUGCUGUAUACCUC, 0.39. For the variant UAACAGGGGGCCACAGCAGGAGCGUUCACGUCGCAGCCCCUGUCAGAUCCUGGUGAGUCUGCGAGUUCUGCUGUAUAUCUC, the self-cleavage was 0.03. The same measure for UAACAGGGGGCCACAGCAGGAGCGUUCACGUCGCAGCCCCUGACAGAUUCUGGUGAAUCUGCGAAUUCUGCCGUAUAUCUC: 1.09. To UAACAGGGGGCCACAGCAGGAGCGUUCACGUCGCAGCCCCUGACAGAUUCUGGUGAAUCUGCGAAUUCUGCAGUAUAUCUC belongs 0.26; to UAACAGGGGGCCACAGCAGGAGCGUUCACGUCGCAGCCCCUGCCAGAUCCUGGUGAAUCUGCGAAUUCUGCUGUAUAUCCC, 0.08. To UAACAGGGGGCCACAGCAGGAGCGUUCACGUCGCAGCCCCUGUCAGAUUCUGGCGAAUCUGUGAAUUCUGCUGUAUAUCUC belongs 0.44; to UAACAGGGGGCCACAGCAGGAGCGUUCACGUCGCAGCCCCUGUCAGAUUCCGGUGAAUCUGCGAAUUCUGCCGUAUAUCUC, 0.74; to UAACAGGGGGCCACAGCAGGAGCGUUCACGUCGCAGCCCCCGUUGGACUCUGGUGAAUCUGCGAAUUCUGCUGUAUAUCUC, 0.17. As for UAACAGGGGGCCACAGCAGGAGCGUUCACGUCGCAGCCCCUGUCAGAACCUGGUGAGACUGCGAAUUCUGCUGUUUAUCUC, the self-cleavage came to 0.16. The same measure for UAACAGGGGGCCACAGCAGGAGCGUUCACGUCGCAGCCCCUGUCAGAUUCUGGAGAAUCUGCGAAUUCUGCUGUAUAUCAC: 1.15; for UAACAGGGGGCCACAGCAGGAGCGUUCACGUCGCAGCCCCAGUCAGGUUCUGGUGAAUCUGCGAAUUCUGCUGUAUAUCUC: 0.09. For UAACAGGGGGCCACAGCAGGAGCGUUCACGUCGCAGCCCCUGUCAGAUUCAGGUGAAUCUGCGUAUUCUGCUGUAUAUCUC, the self-cleavage amounted to 0.27. In the case of UAACAGGGGGCCACAGCAGGAGCGUUCACGUCGCAGCCCCCGUCAGAUCCUGGUGAAUCUGCAAGUUCUGCCGUAUAUCCC, the self-cleavage came to 0.12. The same measure for UAACAGGGGGCCACAGCAGGAGCGUUCACGUCGCAGCCCCUGGCAGAUUCUGGUGAAUCUGCGAAUUCUGCCGUAUAUCUC: 0.08; for UAACAGGGGGCCACAGCAGGAGCGUUCACGUCGCAGCCCCAGUCAGAUUCUGGCGAAUCUGCGAAUUCUGCUGUAUAUCUC: 0.35.
